The values below come from ChEMBL document CHEMBL4888484, “Replenishing the malaria drug discovery pipeline: Screening and hit evaluation of the MMV Hit Generation Library 1 (HGL1) against asexual blood stage Plasmodium falciparum ,using a nano luciferase reporter read-out” (2022).

The assay relates to Plasmodium falciparum. The experiment in a line: Primary screen in NF54 nanoGlo assay, in single point, at 2uM, 72h; a lower Z score goes with more inhibition. The note with it: timepoint 72 hour. The format is functional, Erythrocyte.

The structures appear in SMILES notation. Screen size: about 150,000 compounds; about 540 (0.36%) showed an effect of 50% or more. Some of the results follow.

Usually % Inhibition stands for the drop in the measured response relative to a control, in per cent. Turning to `CCS(=O)(=O)Oc1ccccc1CN(CC1CC1)C(=O)NC(C)(C)C`, the “% Inhibition” value is given as 3% and the Z score was -0.44.

Take `Cc1cc(N2CCCC2=O)c(NC(=O)CCc2ccccc2)cc1NC(=O)CCc1ccccc1`: the “% Inhibition” value is 4% and the Z score is -0.5.

With `O=C(N[C@H]1COCC[C@@H]1O)c1ccc(CN2CCc3ccccc3C2)o1`, the “% Inhibition” value is on record as -13% and the Z score is listed as 1.27.

Turning to `O=C(Nc1ccc(CCN2CCNCC2)cc1)c1ccccc1`, the “% Inhibition” value is given as -11% and the Z score is recorded as 1.53.

For `CCC(CC)C1CC(NC(=O)NCc2cscn2)CCO1` (centres undefined), the “% Inhibition” value was -10% and the Z score stood at 1.18.

Regarding `CCc1cc2c(N3C[C@H]4CN(C(=O)C5CCNC5=O)C[C@@]4(C)C3)ncnc2s1` (some centres undefined), the “% Inhibition” value is given as 1% and the Z score is on record as -0.17.

On to `O=S(=O)(NC[C@H](O)c1ccccc1Cl)c1cncc(F)c1`, for which the “% Inhibition” value was -8% and the Z score is recorded as 1.14.

Turning to `CCCCCOCC(=O)N1CCS(=O)(=O)C2CCCC21` (centres undefined), the “% Inhibition” value is recorded as -9% and the Z score came out at 1.43.

`C[C@@H](C(=O)NCc1nc(C2CCC(F)(F)CC2)no1)c1ccccc1`: the “% Inhibition” value is reported as -17% and the Z score is 2.22.

Regarding `CC(C)Cc1cc(NC2CC[C@@H](O)[C@@H](O)C2)ncn1` (some centres undefined), the “% Inhibition” value is listed as -12% and the Z score was determined as 2.18.

Turning to `COCCN(c1ccncc1)S(C)(=O)=O`, the “% Inhibition” value came out at 35% and the Z score is -4.67.

On to `O=C(c1ncc(F)cc1F)N1C[C@@H]2CC[C@H]1CN(C1Cc3ccccc3C1)C2`, for which the “% Inhibition” value came out at 3% and the Z score is reported as -0.52.

For `CCc1onc(C)c1[C@@H]1CCCN1Cc1ccc(OC)c(Br)c1`, the “% Inhibition” value is given as -5% and the Z score is reported as 0.73.

`CC(C)c1ccc(NC[C@@H](C(C)C)N(C)C)nn1`: the “% Inhibition” value is -3% and the Z score is recorded as 0.59.

As for `COc1ccc(C)nc1NS(=O)(=O)c1ccc2c(c1)CC(C)(C)O2`, the “% Inhibition” value is on record as -12% and the Z score stood at 1.58.

In the case of `COC(C)CS(=O)(=O)NC(C)CN1CCCCCC1` (centres undefined), the “% Inhibition” value is listed as -5% and the Z score worked out at 0.67.

In the case of `CC[C@H](NC(=O)Cc1cc(F)c(F)c(F)c1)C1CC(O)C1` (some centres undefined), the “% Inhibition” value worked out at 12% and the Z score was -1.67.

In the case of `CC1CCC(OC2CCN(C(=O)Nc3cn[nH]c3)CC2)CC1` (centres undefined), the “% Inhibition” value is -25% and the Z score was found to be 2.31.

Turning to `Nc1nnc(-c2ccc(Br)o2)o1`, the “% Inhibition” value worked out at 10% and the Z score is recorded as -1.28.

Regarding `CC(C)N(Cc1nc(C(=O)N2CCOCC2)co1)Cc1ccc(Cl)cc1Cl`, the “% Inhibition” value was -3% and the Z score stood at 0.32.

Take `O=S(=O)(NCCCOC[C@H]1CCCO1)c1ccc(Cl)cc1`: the “% Inhibition” value is reported as -9% and the Z score is 0.92.

For the compound `O=C1CCCN1CCCn1ccnc1-c1cccc(-n2cccn2)c1`, the “% Inhibition” value is -9% and the Z score is on record as 1.45.

Take `COCCNC(=O)CN(C)S(=O)(=O)c1cccc(F)c1F`: the “% Inhibition” value is -17% and the Z score amounted to 1.5.

As to `COc1cc(CN2CCO[C@H](c3cccnc3)C2)cc(OC)c1OC`, the “% Inhibition” value is recorded as -11% and the Z score is 1.62.

For `CNc1ccnc(-c2cnn(CC(=O)Nc3cc(C)nn3C)c2)n1`, the “% Inhibition” value is listed as -11% and the Z score turned out to be 2.15.

As for `Cc1cccc(N[C@@]2(C(F)(F)F)NC(c3ccccc3)=NC2=O)n1`, the “% Inhibition” value is given as -6% and the Z score came out at 0.99.

As for `Cn1cc([C@@H](Nc2ccc3nncn3n2)C(C)(C)C)cn1`, the “% Inhibition” value was -6% and the Z score was 1.09.

As for `Cn1nc(-c2ccc(Cl)s2)cc1NC(=O)CCc1ccncc1`, the “% Inhibition” value is -6% and the Z score turned out to be 0.72.

With `Cc1cccc(NC(=O)c2ccccc2NC(=O)CN2C(=O)N[C@](C)(c3ccc4c(c3)CCC4)C2=O)c1`, the “% Inhibition” value stood at 3% and the Z score was -0.53.

For the compound `CCCc1noc(CN(C)C(=O)c2c[nH]c3cc(C)nn3c2=O)n1`, the “% Inhibition” value is -16% and the Z score was 1.53.

For `Cc1ccc(CC[C@H](C)NC(=O)CN2C(=O)Cc3ccccc32)o1`, the “% Inhibition” value is -1% and the Z score came to 0.17.

In the case of `O=C(CN1C(=O)c2ccccc2C1=O)Nc1ccccc1-c1cn2c(n1)CCCC2`, the “% Inhibition” value is 7% and the Z score is -1.31.

With `Fc1cc(F)cc(OCc2ncnn2CC(F)F)c1`, the “% Inhibition” value amounted to 7% and the Z score is -1.

As for `COc1cc(-c2nc3c([nH]2)c(C2CC2)nn3C)cc2c1OCO2`, the “% Inhibition” value is given as -3% and the Z score came out at 0.41.

Regarding `O=C(N[C@@H]1COC2(CCCC2)C1)c1n[nH]c2c1CCC2`, the “% Inhibition” value is on record as -6% and the Z score worked out at 1.

Turning to `CCc1nc2ccc(C(=O)N3CCC(n4ccnn4)CC3)cc2s1`, the “% Inhibition” value is given as -7% and the Z score was determined as 1.07.

As for `CC(C)(NC(=O)c1cccs1)c1nc([C@H]2CCOC2)no1`, the “% Inhibition” value is 0% and the Z score is listed as 0.09.

On to `CC(C)C[C@H](C)OC(=O)NCc1cc(=O)[nH]c(C2CC2)n1`, for which the “% Inhibition” value was -11% and the Z score is reported as 2.

Turning to `Cc1coc(-c2cccc(NC3C4CCOC4C34CCC4)c2)n1` (centres undefined), the “% Inhibition” value is -2% and the Z score is given as 0.29.

`C[C@H](NC(=O)c1ccoc1)C(=O)Nc1ccn(Cc2cccnc2)n1`: the “% Inhibition” value is recorded as -9% and the Z score was 1.19.

For the compound `OC1CCN([C@H]2C[C@H]2c2ccccc2)CC1(F)F` (some centres undefined), the “% Inhibition” value was -8% and the Z score is reported as 1.05.

Regarding `COc1ccccc1/C=C1\CCCC2C1=NN(C(=O)c1cc3nc(-c4ccc(C(C)C)cc4)cc(C(F)(F)F)n3n1)C2c1ccccc1OC` (centres undefined), the “% Inhibition” value worked out at 3% and the Z score is -0.54.
